# Measured values reported in the supplement of paper PMC3334620.
# Whole data set: some 33,000 sequences, median “E-score (-0.5 to 0.5)” near -0.035, cut for the highest 2% near 0.35. This is one part of the list.
# Target: T1, Pdr3 (UniProt P33200)
# T1 sequence: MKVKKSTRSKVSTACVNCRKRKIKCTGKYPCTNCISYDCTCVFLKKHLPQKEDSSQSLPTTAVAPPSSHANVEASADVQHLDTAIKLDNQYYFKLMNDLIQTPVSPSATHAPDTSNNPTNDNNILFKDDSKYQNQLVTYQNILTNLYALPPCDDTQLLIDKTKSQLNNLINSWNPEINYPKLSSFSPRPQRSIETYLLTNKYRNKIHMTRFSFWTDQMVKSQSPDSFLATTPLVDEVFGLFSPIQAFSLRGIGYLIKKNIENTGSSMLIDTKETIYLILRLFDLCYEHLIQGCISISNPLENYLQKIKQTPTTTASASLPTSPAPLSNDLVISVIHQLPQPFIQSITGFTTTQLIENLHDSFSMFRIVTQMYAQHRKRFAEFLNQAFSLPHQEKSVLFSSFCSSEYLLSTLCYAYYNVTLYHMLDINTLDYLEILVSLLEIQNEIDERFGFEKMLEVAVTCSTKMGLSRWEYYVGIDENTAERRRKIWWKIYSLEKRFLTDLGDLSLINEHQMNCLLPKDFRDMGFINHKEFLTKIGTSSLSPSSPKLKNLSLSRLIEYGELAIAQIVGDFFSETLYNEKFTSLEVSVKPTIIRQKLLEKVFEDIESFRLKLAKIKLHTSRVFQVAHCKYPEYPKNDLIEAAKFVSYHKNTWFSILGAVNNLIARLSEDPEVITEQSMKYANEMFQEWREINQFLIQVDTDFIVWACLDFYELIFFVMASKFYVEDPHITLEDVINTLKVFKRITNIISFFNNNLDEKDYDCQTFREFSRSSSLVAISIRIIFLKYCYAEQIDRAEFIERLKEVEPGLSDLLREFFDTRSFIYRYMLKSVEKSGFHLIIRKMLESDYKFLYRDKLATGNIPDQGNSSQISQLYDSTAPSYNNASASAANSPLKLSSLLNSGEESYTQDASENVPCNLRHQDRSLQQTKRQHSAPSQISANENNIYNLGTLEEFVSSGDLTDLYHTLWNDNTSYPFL
# Assay: PBM E-score (8-mer binding enrichment) (E-score (-0.5 to 0.5)); higher = stronger / more preferred TF binding; most listed sequences are background and not binding sites
# Conditions: protein concentration: 200 nM; construct: GST-full length
# How it was run: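 Yeast transcription factors, full-length or as DNA-binding domains, were expressed with a GST tag using PURExpress in vitro transcription/translation. At about 100-200 nM they were applied to universal all-10-mer Agilent arrays, double-stranded by primer extension on fresh or once-stripped slides. Fluorescent anti-GST detected bound protein, and masliner normalised the scans. E-scores for ungapped eight-base words, pooled with reverse complements, came from the Universal PBM Analysis Suite.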
row,Sequence,PBM E-score
1,AGTTCTGG,-0.0246
2,ACCGCCAT,0.14
3,AAGCCCAC,-0.0697
4,CTTCGCCA,0.00407
5,ACGTCCCG,0.279
6,GATTACCC,0.187
7,GATAGGCC,-0.0163
8,CAAAATCG,0.0231
9,GACCCGAA,0.198
10,CCTAAGGC,-0.303
11,GTCTTCTA,-0.0647
12,CGCTTTGC,0.0905
13,AGGCGCAT,0.0526
14,AGTCACGG,0.188
15,CTAATTCC,0.234
16,CACACGCC,0.149
17,AGGAGGTG,-0.274
18,ACAAGCTG,-0.0323
19,CGAGATCC,0.244
20,CACCTAAA,-0.178
21,AAGCAGTA,-0.273
22,CATGGTCA,-0.0253
23,GCGTAGCC,-0.287
24,ATCGAGAA,-0.05
25,AGAAAGGG,-0.246

row,Sequence,PBM E-score
1,GGCTAATA,0.0603
2,CAAGCGCG,0.171
3,CCCGGCAC,0.154
4,CCCAAGTA,-0.0962
5,CTAGCAGA,-0.228
6,AATCAAGG,0.0734
7,CTGAGGGA,-0.172
8,GCAGTTTA,-0.158
9,GTACGCAA,-0.201
10,ATTTAAAA,0.205
11,GTCAAGAA,-0.0491
12,ATTGTGAC,-0.0378
13,GGGACCTA,0.0394
14,CGCACACG,0.0483
15,AGAGTCTA,-0.418
16,CGAACCTC,0.0087
17,ACTGGGCC,-0.108
18,AACGGTGC,-0.178
19,CCCAAACC,0.159
20,CAATAATA,0.124
21,AAGTGGAA,-0.0995
22,CAGCCTTA,-0.231
23,TCATTCAA,-0.00296
24,GGAGTGAA,0.0992
25,GTGTCGGA,0.205

row,Sequence,PBM E-score
1,TAGAAGCA,-0.304
2,AGGTGTTG,-0.126
3,ACCGCACC,0.183
4,AACCATAA,-0.127
5,AGCACCGC,0.0178
6,AGCTGAAG,-0.065
7,ATTACCGC,0.233
8,GTCACTAA,-0.0506
9,AGGCGCGA,0.0925
10,GCTTCCCC,-0.0508
11,ATCAACCC,0.208
12,TCAAGGGA,-0.00064
13,AGCTCCAA,-0.014
14,CCTGGCAA,-0.0427
15,GGCCTCGA,-0.0838
16,CAAAAAGA,-0.085
17,CGTTAGGC,-0.188
18,ACCCAGAG,-0.132
19,CTACGACA,0.0229
20,CCCGCCAG,0.0336
21,CTCGGAGC,0.276
22,AACCTACT,-0.0775
23,CATTTCCG,0.411
24,AAGGGTGC,-0.192
25,TAGTCTCA,-0.119

row,Sequence,PBM E-score
1,ACCCCACA,-0.0531
2,AACATATA,0.0565
3,AGGGCTGG,-0.0783
4,CTAAGTTC,-0.0571
5,CGGGGGGA,-0.0427
6,GACCCGTC,0.214
7,CATTTGGA,-0.0375
8,AGAGTTCA,-0.245
9,CACCGACC,0.0698
10,CAAGCAAG,-0.0908
11,AATGTTAA,-0.0154
12,ACTGCGAT,0.0238
13,AGACCGCA,-0.0798
14,GGAGATCC,0.16
15,AATGTCTA,-0.254
16,TTGCAAAA,-0.0444
17,GTATTCCA,0.0986
18,CGAAGTGC,0.0376
19,CCTAGGCG,-0.109
20,TTACTAAA,-0.135
21,GGGGGCCA,-0.0282
22,ATTACTAA,-0.0285
23,ACCCATTC,0.111
24,ATACTATG,0.128
25,ACATGCTG,-0.158

row,Sequence,PBM E-score
1,ATAATGGA,0.0808
2,GTCAGAAA,-0.183
3,ACACAACC,-0.0449
4,CATGATTC,-0.0509
5,AATAAAAC,-0.0958
6,GGCAAGTA,0.0167
7,CGTGCAGC,0.112
8,CTACACAC,-0.178
9,AATAAGCG,-0.151
10,CCCGTAGC,-0.118
11,CAACGTTA,-0.189
12,GACGGGGC,0.112
13,AATTCACA,0.0469
14,CTTTGCGC,-0.00912
15,CATTTCGC,0.135
16,ATCAAGCG,0.0362
17,AAAATGAA,-0.187
18,CGACGGAC,0.342
19,GATGTGTA,-0.101
20,CCATTGGA,-0.111
21,GTTACTCA,0.00677
22,CTTGCGCA,0.0862
23,CCGACGGC,0.237
24,CGTGATGC,0.049
25,CGGGATGC,0.311

row,Sequence,PBM E-score
1,GCGCATTA,0.212
2,AGATCTTA,-0.163
3,AAATGCGG,0.231
4,CACCACCA,-0.0856
5,CCTTAACG,0.139
6,ACATGCGT,-0.265
7,ACAATGTG,-0.0811
8,GTTTGAAA,-0.0863
9,CGCTTACC,-0.0482
10,GCCACATA,-0.0989
11,CCTTTCAG,-0.185
12,GGAGCGCA,0.0206
13,CAAGTTAC,-0.0624
14,CCTTATGA,-0.0406
15,CGAGGAAG,0.0123
16,AGTGCGTA,-0.207
17,GAAGGATC,0.0085
18,ACCACGTA,-0.182
19,CGTGAGCA,-0.0989
20,CAATACCG,0.13
21,ACTTCTCA,-0.287
22,GACAGTGC,0.125
23,CGCTTCCA,-0.00125
24,GTTTGGAA,-0.0486
25,ATTTTACC,0.194

row,Sequence,PBM E-score
1,GGACAGAC,0.116
2,CGCGACAC,0.145
3,ATAGGCGG,0.216
4,AACTATAT,-0.0385
5,AGTAGCTG,-0.132
6,CGTGCTAG,-0.276
7,GAGGCGTA,-0.0236
8,CGTGTCAA,-0.205
9,CAGTCCCG,0.273
10,GCGATTAA,0.079
11,TCAGACCA,-0.0674
12,GAACTAAA,0.0787
13,AGCTTGAA,-0.0457
14,ATCATCTG,0.0534
15,AAGATTTC,0.156
16,ACCATTTG,-0.0766
17,ACTTCGAT,0.046
18,CGCTACTC,0.0433
19,AAGGGGTG,-0.187
20,GCCTGCAA,-0.182
21,AGTGTAGC,-0.0872
22,AGAGCTAG,-0.27
